Results published in PubChem BioAssay AID488969 (Vanderbilt High Throughput Screening Facility, 2010).
In all, about 110,000 compounds were measured (“z-score”: median about -0.1, highest 2% from about 2 on). This is one part of the list.

target: Metabotropic glutamate receptor 8 (Rattus norvegicus) (UniProt P70579); test: rat mGluR8 modulators via GIRK flux, primary screen, cell-based, thallium flux, HTS (AID 488969); details: HEK293 rat mGluR8, GIRK (G protein-gated inwardly rectifying potassium channel) thallium flux, FluoZin2; at 10 µM; stronger effect = higher value; submaximal glutamate (EC20) added with thallium
Chain of UniProt P70579 (P70579 whole entry, looked up): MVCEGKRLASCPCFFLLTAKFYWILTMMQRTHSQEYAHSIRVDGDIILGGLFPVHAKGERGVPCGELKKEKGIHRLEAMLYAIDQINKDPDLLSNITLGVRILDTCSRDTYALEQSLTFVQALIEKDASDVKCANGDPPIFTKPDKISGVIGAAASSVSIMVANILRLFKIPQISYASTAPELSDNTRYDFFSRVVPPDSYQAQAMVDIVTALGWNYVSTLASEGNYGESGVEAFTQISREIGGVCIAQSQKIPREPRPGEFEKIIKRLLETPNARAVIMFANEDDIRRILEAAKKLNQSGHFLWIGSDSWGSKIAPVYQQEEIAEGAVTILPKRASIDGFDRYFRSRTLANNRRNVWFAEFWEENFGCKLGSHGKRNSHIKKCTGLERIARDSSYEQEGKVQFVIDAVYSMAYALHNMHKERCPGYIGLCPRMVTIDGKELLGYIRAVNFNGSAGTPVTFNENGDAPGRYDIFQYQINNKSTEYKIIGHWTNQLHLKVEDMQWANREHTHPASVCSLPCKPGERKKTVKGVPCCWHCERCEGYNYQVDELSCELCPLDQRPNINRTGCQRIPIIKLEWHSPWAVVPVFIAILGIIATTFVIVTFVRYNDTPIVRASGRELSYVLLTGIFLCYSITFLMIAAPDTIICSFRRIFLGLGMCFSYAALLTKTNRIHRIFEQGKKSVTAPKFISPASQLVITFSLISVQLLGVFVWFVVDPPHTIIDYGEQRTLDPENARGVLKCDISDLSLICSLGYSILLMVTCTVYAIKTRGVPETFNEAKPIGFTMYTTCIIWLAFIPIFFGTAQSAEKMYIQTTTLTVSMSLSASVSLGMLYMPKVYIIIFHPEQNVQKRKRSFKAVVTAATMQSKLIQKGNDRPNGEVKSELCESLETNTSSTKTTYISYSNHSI

SMILES | z-score
CC1CCc2c(sc3nc(C4CC4)nc(N4CCN(C(=O)c5ccco5)CC4)c23)C1 (stereo unspecified) | -0.174
COC(=O)[C@@H](NC(=O)NCc1cccs1)C(C)C | 0.171
COc1ccc(CCNC(=O)c2c(C)cc(=O)oc2C)cc1OC | -0.0984
COc1ccc(-c2csc3nc(-c4cccnc4)nc(N4CCC(C(N)=O)CC4)c23)cc1OC | -0.122
Fc1ccc(N2CCN(c3ncnc4nc[nH]c34)CC2)cc1 | -0.189
CCN(CC)S(=O)(=O)c1cc(C(=O)O)c(Cl)cc1Cl | -0.554
CC(=O)Nc1cc(S(=O)(=O)C(F)(F)F)ccc1Cl | 0.128
CC1CN(CC(=O)Nc2cccc(C(=O)Nc3cccc(C(F)(F)F)c3)c2)CC(C)O1 (stereo unspecified) | -0.157
C=CCn1c(-c2ccccc2)n[nH]c1=S | -0.0664
Cc1ccc(NC(=O)C(=O)NCCN2CCN(C(=S)Nc3ccccc3)CC2)cc1 | -0.0905
CCn1c(N)nc2c1c(=O)n(C)c(=O)n2C | -0.0494
CCOC(=O)COc1c(Cl)cc(C2NC(=S)NC(c3ccccc3)=C2C(C)=O)cc1OC (stereo unspecified) | -0.494
CC(C)OC(=O)C1CC=CCC1C(=O)Nc1ccc(Cl)cc1 (stereo unspecified) | 0.303
O=C(OCCN=C1NS(=O)(=O)c2ccccc21)C1CC(=O)N(c2ccc(Cl)cc2)C1 (stereo unspecified) | -0.929
COc1cc(NC(=O)c2cc3nc(C)cc(C)n3n2)c(OC)cc1Cl | 0.225
O=C(CCn1c(=O)c2ccccc2n(CC(=O)NC2CCCC2)c1=O)NCCc1ccc(Cl)cc1 | -0.252

SMILES | z-score
CCC(=O)N=c1sc2cc(F)cc(F)c2n1C | -0.41
Cc1ccc2sc3ccc(NC(=O)c4ccccc4Cl)cc3c(=O)c2c1 | -0.266
COC(=O)c1sc2ccccc2c1NC(=O)c1ccc(S(=O)(=O)N2CCC(C)CC2)cc1 | -0.0994
Cc1csc(NC(=O)C2CCCN(S(=O)(=O)c3cnc[nH]3)C2)n1 (stereo unspecified) | 0.36
CC(=O)NS(=O)(=O)c1ccccc1 | 0.331
Cc1ccccc1Sc1ncnc2onc(C)c12 | -0.106
O=C(c1cc(-c2ccc(O)cc2)on1)N1CCCc2ccccc21 | -0.181
COCCn1nnnc1C(c1cc2cc(C)ccc2[nH]c1=O)N1CCCCCC1 (stereo unspecified) | -0.105
COCCNc1nc(N)c([N+](=O)[O-])c(NCCO)n1 | -0.583
COc1ccccc1-c1cc(SC)c(C#N)c(=O)o1 | -0.292
CCC(c1ccccc1)c1nc(-c2ccccn2)no1 (stereo unspecified) | -0.198
Cc1cc(C)n(C(=O)c2ccc(S(=O)(=O)NCC3CCCO3)cc2)n1 (stereo unspecified) | -0.0446
COc1ccccc1N1CCN(C(=O)c2ccc(S(=O)(=O)N3CCCCC3)cc2)CC1 | 0.712
CCN(CC)S(=O)(=O)c1ccc(C(=O)OCn2nnc3ccccc3c2=O)cc1 | -0.0924
CCOC(=O)c1cnn(Cc2ccccc2Cl)c1N | -0.517
